Experimental data taken from PubChem BioAssay AID1468 (National Center for Advancing Translational Sciences (NCATS), 2008).
Values joined by “and” are separate entries in the source; they are usually repeats but may differ in a detail not shown here. Equal entries are not always repeated. The campaign covered roughly 280,000 compounds. About 1,100 (0.39%) were called active. Inconclusive results, whose numbers are uncertain, are shown with a selection of clear calls. The call rests on the fitted dose curve; in most records, active means well fitted inhibition curve with a large enough effect; inconclusive means small, poorly fitted or top-dose-only effect, or effect the other way; inactive means flat fitted curve, though single readings scatter. Where the call is inconclusive, the potency comes from a doubtful curve fit.

molecular target: Microtubule-associated protein tau (Homo sapiens) (UniProt P10636); assay: qHTS for Inhibitors of Tau Fibril Formation, Fluorescence Polarization; details: K18 P301L tau heparin fibrillization, Alexa594 FP, 6 h; series mostly up to 57.7 µM; further: nearly all actives have a fitted effect of over 55% in size
Sequence of UniProt P10636 (P10636 whole entry, looked up): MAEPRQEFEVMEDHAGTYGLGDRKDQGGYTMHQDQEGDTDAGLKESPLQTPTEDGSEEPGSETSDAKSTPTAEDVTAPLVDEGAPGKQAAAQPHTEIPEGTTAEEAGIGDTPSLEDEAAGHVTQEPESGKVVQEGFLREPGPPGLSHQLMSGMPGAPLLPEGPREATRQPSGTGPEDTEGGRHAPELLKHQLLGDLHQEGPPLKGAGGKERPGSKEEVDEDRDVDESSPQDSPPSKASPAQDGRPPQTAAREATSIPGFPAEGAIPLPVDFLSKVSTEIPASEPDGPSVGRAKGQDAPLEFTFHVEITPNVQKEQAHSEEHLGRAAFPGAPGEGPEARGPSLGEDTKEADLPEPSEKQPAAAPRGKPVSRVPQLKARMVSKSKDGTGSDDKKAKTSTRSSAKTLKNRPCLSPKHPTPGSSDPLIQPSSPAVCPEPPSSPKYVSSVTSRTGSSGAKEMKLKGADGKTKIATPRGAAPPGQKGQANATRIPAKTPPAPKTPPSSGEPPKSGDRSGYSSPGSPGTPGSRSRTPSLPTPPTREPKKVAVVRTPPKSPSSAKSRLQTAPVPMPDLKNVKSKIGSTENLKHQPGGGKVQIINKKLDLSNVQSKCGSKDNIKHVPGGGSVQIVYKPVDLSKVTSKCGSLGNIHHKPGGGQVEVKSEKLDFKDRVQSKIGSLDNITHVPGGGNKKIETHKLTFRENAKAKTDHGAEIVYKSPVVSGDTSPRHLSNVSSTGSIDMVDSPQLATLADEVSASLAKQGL
In short: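 K18 P301L tau (15 uM unlabeled/0.24 uM Alexa 594-labeled, final) + compound + heparin 20 uM final; 100 mM NaOAc pH 7; 6 hr 37 C; ThT 30 uM final added, 1 hr RT; FP ex 555/em 632 nm.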
Potency means the concentration at half of the fitted maximal effect; tags describe the fitted curve by direction and shape.

| SMILES | Potency |
| --- | --- |
| COc1cccc(NC(=O)C2CCN(S(=O)(=O)c3cc(-c4noc(C)n4)ccc3C)CC2)c1 | inconclusive: 1.12 µM [inhibitor, full curve, poor fit] |
| NCC(O)c1cc(O)c(O)cc1F (centres undefined) | inconclusive: 15.8 µM [inhibitor, partial curve] |
| Nc1c(C(=O)NCCCc2ccccc2)c2nc3ccccc3nc2n1Cc1cccs1 | inconclusive: 31.6 µM [inhibitor, partial curve] |
| CC(C)CCNC(=O)c1c(N)n(CC2CCCO2)c2nc3ccccc3nc12 (centres undefined) | inactive |
| COc1ccc2c3c1O[C@H]1[C@@H](O)C=C[C@H]4C(C2)NCCC341 (some centres undefined) | inconclusive: 0.0794 µM [inhibitor, full curve, poor fit] |
| c1ccc(NC2=Nc3ccccc3CC2)cc1 | inconclusive: 0.891 µM [inhibitor, full curve, poor fit] |
| CCC(C)n1c(O)c(C(c2ccccn2)c2c(O)n(C(C)CC)c(=S)[nH]c2=O)c(=O)[nH]c1=S (centres undefined) | inconclusive: 10 µM [inhibitor, partial curve, poor fit] |
| CN1C(=O)C(=Cc2cccnc2)C(=O)N(C)C1=O | inactive |
| COc1ccc(C(O)P(=O)(OC2CCCCC2)c2ccc(N(C)C)cc2)cc1OC (centres undefined) | inconclusive: 0.0794 µM [inhibitor, full curve, poor fit] |
| COc1cc(Cn2c(N)c(C(=O)NCc3ccco3)c3nc4ccccc4nc32)cc(OC)c1OC | inconclusive: 8.91 µM [inhibitor, partial curve, poor fit] |
| Cc1ccc2c(c1)C1CN(C)CCC1N2C(=O)c1cccs1 (centres undefined) | inactive |
| C=CCN1CCc2cccc3c2C1Cc1ccc(O)c(O)c1-3 (centres undefined) | inconclusive: 22.4 µM [inhibitor, partial curve] and inconclusive: 28.2 µM [inhibitor, single point] |
| CC(C)[C@@]1(NC(=O)[C@@H]2C[C@@H]3c4cccc5[nH]cc(c45)C[C@H]3N(C)C2)O[C@@]2(O)C3CCCN3C(=O)[C@H](Cc3ccccc3)N2C1=O (some centres undefined) | inconclusive: 44.7 µM [activator, single point] |
| Cl.Cl.Cl.Cl.Cl.Cl.N.N.N.N.NNNNN.NNNNN.O.O.[Ru].[Ru].[Ru] | inconclusive: 31.6 µM [inhibitor, partial curve] |
| CCOC(=O)C1(CCCc2ccccc2)CCN(C2CCCC2)CC1 | inactive |
| COc1ccc(C(=O)Nc2ccc(-c3nc4ccccc4s3)c(Cl)c2)cc1Cl | inconclusive: 15.8 µM [inhibitor, partial curve] |
| O=C1CC(=O)N(Cc2ccccc2)C(=O)N1CCCCCCN1C(=O)CC(=O)N(Cc2ccccc2)C1=O | inconclusive: 0.794 µM [inhibitor, full curve, poor fit] |
| CCOP(=S)(OCC)Oc1cc(C)oc(=O)c1Cl | inconclusive: 31.6 µM [inhibitor, partial curve] |
| N[C@]1(C(=O)O)CC[C@@H](C(=O)O)C1 (racemic) | inactive |
| N#CC1=C(N)Oc2n[nH]c(-c3cccs3)c2C1c1ccsc1 (centres undefined) | inconclusive: 20 µM [inhibitor, partial curve] |
| CO[C@H]1CC=C2CCN3CCC4=C(CC(=O)OC4)[C@]23C1 | inconclusive: 28.2 µM [inhibitor, single point] |
| COc1cccc(NC(=O)c2ccc3c(=O)n4nc(Nc5ccccc5OC)sc4nc3c2)c1 | inconclusive: 0.631 µM [inhibitor, full curve, poor fit] |

| SMILES | Potency |
| --- | --- |
| O=c1c(/C=N/N2CCOCC2)c(O)n(-c2ccccc2)c(=S)n1-c1ccccc1 | inactive |
| COc1cc(C2c3cc4c(cc3C(O)[C@H]3COC(=O)C23)OCO4)cc(OC)c1OC (some centres undefined) | inactive and inconclusive: 8.91 µM [inhibitor, single point] |
| Cc1cc(C)cc(N2C(=O)NC(=O)/C(=C\c3cccn3-c3ccccc3)C2=O)c1 | inactive |
| O=C(Nc1ccc(OC(F)(F)F)cc1)Oc1ccccc1N1CCOCC1 | inconclusive: 25.1 µM [inhibitor, single point] |
| CCOC(=O)c1c(C)c(P(=S)(N2CCOCC2)N2CCOCC2)n(C)c1C | inactive |
| Cc1ccc(C=C2C(Cl)=C(Cl)C(Cl)=C2Cl)cc1 | inconclusive: 17.8 µM [inhibitor, partial curve, poor fit] |
| O=C1c2ccccc2C(=O)N1SC1CCCCC1 | inconclusive: 22.4 µM [inhibitor, single point] |
| Nc1ccncc1 | inconclusive: 8.91 µM [inhibitor, single point] |
| Cc1ccc(N2C(=O)NC(=O)/C(=C\C=C\c3ccco3)C2=O)cc1C | inconclusive: 14.1 µM [inhibitor, partial curve] |
| CN1CCN(c2ccc(N)cc2Cl)CC1 | inactive |
| COc1ccc(/C=C2/C(=O)NC(=O)N(c3ccc(C)c(C)c3)C2=O)cc1CN1C(=O)c2ccccc2C1=O | inactive |
| COc1ccc(/C=C2/C(=O)NC(=O)N(Cc3ccco3)C2=O)cc1 | inactive |
| COc1cccc(C2(C#N)CCN(C)CC2)c1 | inactive |
| CC[C@]1(O)CC(O[C@@H]2CC(N(C)C)C(O)C(C)O2)c2c(cc3c(c2O)C(=O)c2c(O)cccc2C3=O)C1C(=O)OC (some centres undefined) | inactive |
| COC(=O)c1nc(-c2ccc3c(n2)C(=O)C(N)=C(OC)C3=O)c(N)c(-c2ccc(OC)c(OC)c2O)c1C | inconclusive: 4.47 µM [inhibitor, partial curve] |
| CCOC(=O)CSc1nn(-c2ccccc2)c(=S)s1 | inconclusive: 20 µM [inhibitor, single point] |
| C=CCOC(=O)C1=C(C)OC(N)=C(C(=O)OCC)C12C(=O)N(CC(N)=O)c1ccccc12 (centres undefined) | inconclusive: 22.4 µM [inhibitor, partial curve] |
| COC1C(O)C(C)O[C@H](OC2CC[C@@]3(C=O)C4CC[C@]5(C)C(C6=CC(=O)OC6)CC[C@@]5(O)C4CC[C@@H]3C2)C1O (some centres undefined) | inactive |
| CN[C@@H]1C[C@@]2(C)O[C@@H]([C@@H]1OC)n1c3ccccc3c3c4c(c5c6ccccc6n2c5c31)C(=O)NC4 | inconclusive: 0.158 µM [activator, full curve, poor fit] |
| Cc1cccc(C2=NCC(=O)N(CC(=O)NCc3ccco3)c3sc4c(c32)CCCC4)c1 | inconclusive: 44.7 µM [inhibitor, single point] |
| CCOC(=O)C1=C(N)OC2=C(C(=O)CCC2)C12C(=O)N(C)c1ccccc12 (centres undefined) | inconclusive: 0.0501 µM [inhibitor, full curve, poor fit] |
| Cc1ccc2oc(=O)c(-c3nc4ccc(C)cc4[nH]3)cc2c1 | inconclusive: 39.8 µM [inhibitor, single point] |

| SMILES | Potency |
| --- | --- |
| c1ccc2c(N3CCNCC3)nsc2c1 | inconclusive: 15.8 µM [inhibitor, partial curve] |
| COc1ccn(C)c(=O)c1C#N | inconclusive: 25.1 µM [inhibitor, single point] |
| COc1cccc(N2C(=O)CC(=O)NC2=O)c1 | inactive |
| Cc1ccc(N2C(=O)/C(=C/c3ccc(CN(CCC#N)S(C)(=O)=O)o3)C(=O)NC2=S)cc1C | inconclusive: 39.8 µM [inhibitor, single point] |
| CCOC(=O)c1c(-n2c(C)cc(C=C3C(=O)NC(=S)NC3=O)c2C)sc2c1CCCC2 | inconclusive: 31.6 µM [inhibitor, single point] |
| O=C(Nc1ccc(Br)cc1)c1cccc(S(=O)(=O)N2CCc3ccccc32)c1 | inconclusive: 8.91 µM [inhibitor, partial curve] |
| CCn1c(O)c(C=Nc2ccc(S(N)(=O)=O)cc2)c(=O)[nH]c1=S | inconclusive: 1.12 µM [inhibitor, full curve, poor fit] |
| O=C(c1ccc2nc(-c3ccco3)c(-c3ccco3)nc2c1)N1CCC2(CC1)OCCO2 | active: 20 µM |
| O=C(Nc1ccc(Cl)c(C(F)(F)F)c1)NC1CC2CCCC(C1)N2Cc1ccccc1 (centres undefined) | active: 28.2 µM |
| CC(=O)NC(Cc1ccc(N(CCCl)CCCl)cc1)C(=O)O (centres undefined) | inactive |
| C=CCN1C(=O)NC(=O)/C(=C/C=C/c2ccccc2)C1=O | inconclusive: 22.4 µM [inhibitor, partial curve] |
| Cc1ccc(N2C(=O)NC(=O)/C(=C\c3ccsc3)C2=O)cc1C | inactive |
| O=C(c1cc2c(s1)-c1ccccc1OC2)N1CCC2(CC1)OCCO2 | inactive |
| O=C(Nc1cccc(C(F)(F)F)c1)Oc1ccccc1N1CCOCC1 | inconclusive: 17.8 µM [inhibitor, partial curve] |
| CC1(C)C(O)CC(=O)[C@]2(C)C1CC(=O)[C@]1(C)C2CC[C@@]2(C)C(c3ccoc3)OC(=O)C3O[C@@]321 (some centres undefined) | inactive |
| Cc1ccc(-n2c(O)c(/C=C3/C(c4ccccc4)=Nc4ccccc43)c(=O)[nH]c2=O)cc1 | inconclusive: 0.316 µM [inhibitor, full curve] |
| CN1CCC(c2c[nH]c3ccc(O)cc23)CC1 | inactive and inconclusive: 7.94 µM [inhibitor, single point] |
| CC(C)[C@@]1(NC(=O)[C@@H]2C[C@@H]3c4cccc5[nH]cc(c45)C[C@H]3N(C)C2)O[C@@]2(O)[C@@H]3CCCN3C(=O)[C@H](Cc3ccccc3)N2C1=O | inconclusive: 7.08 µM [activator, partial curve, poor fit] |
| Oc1ccc(/C=N/NP(=S)(c2ccccc2)c2ccccc2)c(O)c1O | inconclusive: 39.8 µM [inhibitor, single point] |
| FC(F)(F)c1ccccc1CN1CCN(Cc2ccccc2)CC1 | inactive |
